Results: a collection of fitness landscapes (doi:10.1016/j.celrep.2020.107928)
Whole data set: some 81,000 sequences, median “one-hybrid fitness for binding parS DNA” near -0.17, cut for the highest 2% near 0.51. The list shows a part of the results.

B1: Caulobacter ParB omega fusion; a variant is named by its letters at X, in order, B8GW30 (parent)
chain: MESVVVGEPGMSEGRRGLGRGLSALLGEVDAAPAQAPGEQLGGSREAPIEILQRNPDQPRRTFREEDLEDLSNSIREKGVLQPILVRPSPDTAGEYQIVAGERAWRAAQRAGLKTVPIMVRELDDLAVLEIGIIENVQRADLNVLEEALSYKVLMEKFERTQENIAQTIGKSXSHVANXMRLLXLPDEVQSYLVSGELTAXHARAIAAAADPVALAKQIIEGGLSVRETEALARKAPNLSAGKSKGGRPPRVKDTDTQALESDLSSVLGLDVSIDHRGSTGTLTITYATLEQLDDLCNRLTRGI

Variants of: B1
Assay: one-hybrid fitness for binding parS DNA (scaled: cognate 1, non-cognate 0); higher = stronger binding
Details: with parS DNA site
Procedure, shortened: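 Pre- and post-selection plasmids were Illumina-sequenced, three replicate libraries were pooled, and any variant with under 10 reads was removed. The libraries were Caulobacter ParB with four specificity codons randomised, selected in E. coli USO through a HIS3 reporter whose site is 19 bp from the promoter. Cells grew 48 hours at 37°C on M9 without histidine, with 0.1 mM IPTG and 5 mM 3-AT. Fitness is the log change in variant-to-wild-type read ratio, rescaled against cognate and non-cognate.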

one-hybrid fitness for binding parS DNA, 0.476:
RSEA

one-hybrid fitness for binding parS DNA, 0.342:
RSVN

one-hybrid fitness for binding parS DNA, 0.63:
RWGG

one-hybrid fitness for binding parS DNA, 1.04:
RIMS

one-hybrid fitness for binding parS DNA, 0.257:
RCNW

one-hybrid fitness for binding parS DNA, 1.09:
RCWS

one-hybrid fitness for binding parS DNA, 0.489:
RNQA

one-hybrid fitness for binding parS DNA, 0.938:
RHCS

one-hybrid fitness for binding parS DNA, ≤ 0.2:
TRCM
EPCG
VHNS
QLMA
HVNI
RRSQ
RAIW
MLMS
TNRA
ESLC
YAMS
DLAV
ILML
QDIS
TRPE
HLHY
SGYF
LYIL
HYRR
YKGD
GGHG
PFLE
YACP
KNPF
TTAW
LVDV
QLLK
LTKK
QASS
LGQD
KAEN
DAKM
GPGT
KFKM
NKSY
ILGG
VPTP
PTMN
MYGS
AGHL
LSDN
YAQL
AMEI
WRNV
DLLQ
SHAM
EPLA
MKLI
CSNY
DHAC
VMER
HSSA
ARFT
FDNG
AKGY
MANR
TPSI
KPNR
VYPW
VYYM
DRDI
PLFF
SHRY
GDTT
PHSG
KLGH
HENG
PCVP
KPEK
ISFG
QPQL
TGYY
VNTG
DSLC
LGKL
PRFL
KCAL
NDKV
ATCL
DKVT
AVPL
QPHT
ADDT
KRKY
WTMT
QLAS
GDPG
FNVS
CSLW
YKDF
ANGP
TLKG
RIGR
QQHG
WLWG
RHCD
NGQT
QSKM
RDTF
TSRM
LKAK
VTGN
YVTR
SHRM
SINV
FQLS
QLQI
GKIT
WTTS
SVIC
GRDH
YECC
RVHI
LRST
KLMN
TVDV
QQNH
MVKL
VMLR
TTKI
PVLN
ATIN
TPVC
LPCC
LRQS
TGTG
TMIV
HKEC
YFCS
KEPR
GDAL
EFNS
KKNI
HICS
RWIL
VEYW
TDYY
DKKR
ECGG
VFQE
TLAH
LGNF
NKRY
EPIY
GSES
TECW
EVTR
YLKV
QSQW
YRYW
VKSR
YYAR
QFIS
PHVF
LWRN
NSHR
ARAS
HPNI
TESV
VSKT
GHPC
DPMM
IYVV
LKSH
IFNS
WHGK
QSNG
VKHR
FDEG
QIWT
TYVH
QYGK
IHMM
PSFT
VPDC
WGCS
KYAG
NKTG
WPNR
AKEK
NFTQ
PEMM
YYNE
SGSG

one-hybrid fitness for binding parS DNA, 0.382:
RHQN

one-hybrid fitness for binding parS DNA, 0.504:
RQRY

one-hybrid fitness for binding parS DNA, 1.02:
RTYG
